{
  "source": "ChEMBL document CHEMBL2150933",
  "about": "(J Med Chem, 2012)",
  "system": "NCI-H322M",
  "settings": "Homo sapiens, 48 h",
  "data": [
    {"smiles": "CO[C@H](C(=O)C(C)=O)[C@@H]1Cc2cc3cc(O[C@H]4C[C@@H](O[C@H]5C[C@@H](O)[C@H](O)[C@@H](C)O5)[C@H](O)[C@@H](C)O4)c(C)c(O)c3c(O)c2C(=O)[C@H]1O[C@H]1C[C@@H](O[C@H]2C[C@@H](O[C@H]3C[C@H](O)[C@H](O)[C@@H](C)O3)[C@H](O)[C@@H](C)O2)[C@H](O)[C@@H](C)O1", "values": [
      {"measurement": "GI50", "result": 15.8, "unit": "nM"}
    ]},
    {"smiles": "CO[C@H](C(=O)[C@@H](O)[C@@H](C)O)[C@@H]1Cc2cc3cc(O[C@H]4C[C@@H](O[C@H]5C[C@@H](O)[C@H](O)[C@@H](C)O5)[C@H](O)[C@@H](C)O4)c(C)c(O)c3c(O)c2C(=O)[C@H]1O[C@H]1C[C@@H](O[C@H]2C[C@@H](O[C@H]3C[C@H](O)[C@H](O)[C@@H](C)O3)[C@H](O)[C@@H](C)O2)[C@H](O)[C@@H](C)O1", "values": [
      {"measurement": "GI50", "result": 57.5, "unit": "nM"}
    ]},
    {"smiles": "CO[C@@H]([C@@H]1Cc2cc3cc(O[C@H]4C[C@@H](O[C@H]5C[C@@H](O)[C@H](O)[C@@H](C)O5)[C@H](O)[C@@H](C)O4)c(C)c(O)c3c(O)c2C(=O)[C@H]1O[C@H]1C[C@@H](O[C@H]2C[C@@H](O[C@H]3C[C@H](O)[C@H](O)[C@@H](C)O3)[C@H](O)[C@@H](C)O2)[C@H](O)[C@@H](C)O1)[C@@H](O)C(C)=O", "values": [
      {"measurement": "GI50", "result": 23.4, "unit": "nM"}
    ]}
  ]
}
